# Measured values reported in PubChem BioAssay (Tox21).
# Where “and” joins values, the source holds several entries; their conditions need not be identical. Equal values may be shown once. The inconclusive results got no clear call from the source; some entries with a clear call stand among them for comparison. For some of these results: Potencies beside an inconclusive call are fits to weak or partial responses and may not hold up. The source holds several records for some structures; these can differ, active in one and inactive in another. Calls of active or inactive are those of the source. Calls come from the whole dose curve; as a rule, active = well fitted curve in the direction sought with a large enough effect in the repeat runs; inconclusive = weak or mixed curves; inactive = no such curve, though single readings can be large; an effect the other way counts as inactive or inconclusive.
# Experiments:
# [1] = qHTS RealTime-Glo MT Cell Viability Assay in HepG2 cells - 16 hour (AID 1224885); note: nearly all actives have a fitted effect of over 50% in size
# In short: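 HepG2 cells (600/well) were dispensed with RealTime-Glo reagents, incubated 5 h at 37 °C, then treated with compounds in DMSO for up to 40 h. Nonlytic NanoLuc luminescence reflecting viable cells was read at each stated time point.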
# [2] = qHTS RealTime-Glo MT Cell Viability Assay in HEK293 cells - 24 hour (AID 1224886); note: nearly all actives have a fitted effect of over 50% in size
# In short: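 HEK293 cells seeded with NanoLuc/prosubstrate reagent, rested 5 h at 37 C, then dosed and kept at 37 C up to 40 h. Nonlytic real-time luminescence from viable cells read at 0, 8, 16, 24, 32 and 40 h.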
# [3] = qHTS RealTime-Glo MT Cell Viability Assay in HEK293 cells - 8 hour (AID 1224887); note: nearly all actives have a fitted effect of over 50% in size
# In short: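 HEK293 + NanoLuc + prosubstrate, 600 cells/well; 5 h, 37 C/5% CO2; compound 23 nL in DMSO by pintool; 37 C; luminescence read at 0, 8, 16, 24, 32 and 40 h time points.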
# [4] = A CellTox Green Cytotoxicity Assay to monitor cytotoxicity in HEK293 cells - 8 hour (AID 1224884); note: nearly all actives have a fitted effect of over 35% in size
# In short: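 Tox21 screen in HEK293: membrane-impermeant cyanine dye fluoresces on binding dead-cell DNA; compound pinned 5 h post-seeding, plates held at 37 C, signal read repeatedly through 40 h.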
# [5] = A CellTox Green Cytotoxicity Assay to monitor cytotoxicity in HepG2 cells - 32 hour (AID 1224883); note: nearly all actives have a fitted effect of over 50% in size
# In short: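 Measurements at 0, 8, 16, 24, 32 and 40 h of treatment captured CellTox Green fluorescence in HepG2 cells that had been co-plated with reagent and preincubated 5 h at 37 C/5% CO2.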
# [6] = qHTS assay to identify small molecule antagonists of the androgen receptor (AR) signaling pathway using the MDA cell line in the presence of 0.5 nM R1881 - cell viability counter screen (AID 1259242); note: nearly all actives have a fitted effect of over 45% in size
# In short: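 Concentration-response screen of compounds for toxicity in MDA-kb2 reporter cells: 16 hr at 37C with 0.5 nM R1881, endpoint live-cell protease fluorescence measured in the reporter wells.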
# [7] = biological target: Androgen receptor (Homo sapiens) (UniProt P10275); test: qHTS assay to identify small molecule antagonists of the androgen receptor (AR) signaling pathway using the MDA cell line in the presence of 0.5 nM R1881 (AID 1259243); note: nearly all actives have a fitted effect of over 50% in size
# UniProt P10275, sequence (P10275 whole entry, looked up): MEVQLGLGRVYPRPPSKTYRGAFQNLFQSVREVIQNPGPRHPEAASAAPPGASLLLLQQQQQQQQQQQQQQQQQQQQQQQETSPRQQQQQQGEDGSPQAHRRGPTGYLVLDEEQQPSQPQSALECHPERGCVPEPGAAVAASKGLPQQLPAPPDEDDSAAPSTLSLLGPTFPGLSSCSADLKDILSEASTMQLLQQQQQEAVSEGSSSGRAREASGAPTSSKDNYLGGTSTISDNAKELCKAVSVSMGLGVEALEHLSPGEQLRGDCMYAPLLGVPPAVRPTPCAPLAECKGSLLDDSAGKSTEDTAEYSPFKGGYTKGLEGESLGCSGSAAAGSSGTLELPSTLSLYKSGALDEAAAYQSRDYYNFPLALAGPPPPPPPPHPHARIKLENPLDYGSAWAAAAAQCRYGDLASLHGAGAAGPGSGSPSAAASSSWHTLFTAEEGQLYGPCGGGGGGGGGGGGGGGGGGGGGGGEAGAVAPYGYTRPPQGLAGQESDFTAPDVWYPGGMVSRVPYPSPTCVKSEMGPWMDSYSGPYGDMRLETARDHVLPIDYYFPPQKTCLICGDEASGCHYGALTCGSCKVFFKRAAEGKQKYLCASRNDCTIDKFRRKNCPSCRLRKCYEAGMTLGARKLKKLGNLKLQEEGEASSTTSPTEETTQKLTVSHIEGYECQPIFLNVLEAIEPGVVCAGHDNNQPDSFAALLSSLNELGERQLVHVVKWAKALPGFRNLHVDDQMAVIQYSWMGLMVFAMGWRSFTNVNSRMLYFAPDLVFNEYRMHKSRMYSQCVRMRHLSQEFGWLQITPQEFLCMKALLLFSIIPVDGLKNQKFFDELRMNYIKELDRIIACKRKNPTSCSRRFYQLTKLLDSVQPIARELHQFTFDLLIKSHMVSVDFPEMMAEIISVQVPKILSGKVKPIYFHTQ
# In short: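 With R1881 held at 0.5 nM (final), compound effects on MMTV-luciferase expression in MDA-kb2 cells were scored by luminescence after a 16 hr, 37C incubation.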
# [8] = biological target: Estrogen receptor (Homo sapiens) (UniProt P03372); test: qHTS assay to identify small molecule antagonists of the estrogen receptor alpha (ER-alpha) signaling pathway using the BG1 cell line in the presence of 0.1 nM 17-beta-estradiol (AID 1259244); note: nearly all actives have a fitted effect of over 50% in size
# UniProt P03372, sequence (P03372 whole entry, looked up): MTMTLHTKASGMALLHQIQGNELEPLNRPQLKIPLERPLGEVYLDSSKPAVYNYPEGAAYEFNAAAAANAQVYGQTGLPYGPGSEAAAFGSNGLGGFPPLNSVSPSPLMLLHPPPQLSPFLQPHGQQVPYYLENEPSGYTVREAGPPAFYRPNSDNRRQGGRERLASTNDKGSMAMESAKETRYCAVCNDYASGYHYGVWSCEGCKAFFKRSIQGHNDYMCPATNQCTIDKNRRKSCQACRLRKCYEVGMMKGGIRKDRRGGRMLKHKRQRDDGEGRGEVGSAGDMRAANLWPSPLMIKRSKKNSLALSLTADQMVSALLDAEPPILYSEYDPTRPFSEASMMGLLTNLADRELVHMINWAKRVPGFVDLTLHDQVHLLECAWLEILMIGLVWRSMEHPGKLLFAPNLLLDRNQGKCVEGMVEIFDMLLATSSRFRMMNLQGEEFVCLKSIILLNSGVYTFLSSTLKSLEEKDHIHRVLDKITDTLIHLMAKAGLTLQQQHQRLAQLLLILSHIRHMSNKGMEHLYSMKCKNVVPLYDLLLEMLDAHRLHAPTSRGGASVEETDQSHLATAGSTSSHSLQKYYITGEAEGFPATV
# In short: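 Compounds were tested against 0.1 nM (final) 17beta-estradiol in VM7Luc4E2 cells, which express full-length ER-alpha and an ERE-luciferase reporter; luminescence was recorded following 22 h exposure.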
# [9] = qHTS assay to identify small molecule antagonists of the estrogen receptor alpha (ER-alpha) signaling pathway using the BG1 cell line in the presence of 0.1 nM 17-beta-estradiol - cell viability counter screen (AID 1259241); note: nearly all actives have a fitted effect of over 40% in size
# In short: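 The cell line endogenously expresses full-length ER-alpha and carries four EREs driving luciferase. Cells are cultured 5 days hormone-free, treated 22 hr with compounds and 0.1 nM estradiol, then viability is read by fluorescence.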
# Potency is the fitted concentration of half-maximal effect; tags give direction and shape of the fitted curve.
structure (smiles),measurement,setting,value
CCOP(=S)(OCC)Oc1ccc2c(C)c(Cl)c(=O)oc2c1,Potency,[1],"inconclusive: 49 µM [cytotoxic, partial curve, poor fit]"
same,Potency,[2],active: 14 µM and active: 43.6 µM
same,Potency,[3],active: 12.4 µM and active: 38.9 µM
Oc1c(Cl)cccc1Cl,Potency,[4],inactive
CCC(C)Nc1c([N+](=O)[O-])cc(C(C)(C)C)cc1[N+](=O)[O-] (stereo not drawn),Potency,[5],inactive
same,Potency,[1],inactive
same,Potency,[3],"inconclusive: 24.5 µM [cytotoxic, partial curve]"
O=S(=O)(O)O,Potency,[4],"inconclusive: 55 µM [activator, single point]"
NC(=O)C(Cl)(Cl)Cl,Potency,[5],inactive
same,Potency,[2],inactive
CC(C)C#N,Potency,[1],inactive
CN(C)C1CSSSC1,Potency,[4],"inconclusive: 21.9 µM [activator, single point]"
same,Potency,[3],"inconclusive: 54.9 µM [rising, partial curve]"
C[C@H]1[C@H](c2ccc(Cl)cc2)SC(=O)N1C(=O)NC1CCCCC1,Potency,[4],"inconclusive: 54.9 µM [activator, single point]"
same,Potency,[6],"inconclusive: 68.6 µM [cytotoxic, single point]"
same,Potency,[7],active: 48.6 µM
O=S(=O)(c1ccc(Cl)cc1)c1cc(Cl)c(Cl)cc1Cl,Potency,[5],inactive
same,Potency,[1],"inconclusive: 43.6 µM [cytotoxic, partial curve, poor fit]"
same,Potency,[3],"inconclusive: 27.5 µM [cytotoxic, partial curve, poor fit]"
Nc1ccc(-c2ccc(N)cc2)cc1,Potency,[5],"inconclusive: 54.3 µM [activator, partial curve, poor fit]"
same,Potency,[8],"inconclusive: 34.1 µM [inhibitor, single point]"
COCCl,Potency,[4],active: 22.7 µM
O=C(O)CCCOc1ccc(Cl)cc1Cl,Potency,[4],"inconclusive: 0.198 µM [activator, single point]"
same,Potency,[9],"inconclusive: 0.0986 µM [rising, full curve]"
COc1nn(C(=O)NS(=O)(=O)c2ccccc2OC(F)(F)F)c(=O)n1C,Potency,[4],active: 31.7 µM
same,Potency,[2],inactive
CCCN(CC1CC1)c1c([N+](=O)[O-])cc(C(F)(F)F)cc1[N+](=O)[O-],Potency,[4],"inconclusive: 54.9 µM [activator, single point]"
same,Potency,[3],"inconclusive: 13.8 µM [cytotoxic, full curve]"
